The values that follow come from ChEMBL document CHEMBL4888484, “Replenishing the malaria drug discovery pipeline: Screening and hit evaluation of the MMV Hit Generation Library 1 (HGL1) against asexual blood stage Plasmodium falciparum ,using a nano luciferase reporter read-out” (2022).

The experiment has as its system Plasmodium falciparum. In words: Primary screen in NF54 nanoGlo assay, in single point, at 2uM, 72h; a lower Z score goes with more inhibition. Type of experiment: functional, Erythrocyte. Particulars: timepoint 72 hour.

Several values for one entry are separate records, joined by “and”; a condition that tells them apart may be missing. Equal entries are not always repeated. About 540 (0.36%) of roughly 150,000 compounds showed an effect of 50% or more. This is one part of the list.

As for `Cc1cc(C(=O)N2CCOCC2)ccc1N(C)Cc1ncccc1Cl`, the “% Inhibition” value is 6% and the Z score was -1.24. On the same counts, the results for `c1ccc2c(c1)ncn2CNn1cnnc1` are 0% and 0.08. On the same counts, the results for `Cc1ccc(-c2nnc(CNCCc3nc(-c4cccnc4)n[nH]3)o2)n1C` are -12% and 2.41. On the same counts, the results for `C[C@H](NCC(C)(C)C(N)=O)c1cc(F)cc(F)c1` are -12% and 1.08.

Take `Cc1cc(OCc2nc(C)c(C(=O)Nc3nnc(C4CC4)s3)s2)ccc1Cl`: the “% Inhibition” value is listed as -13% and the Z score was 1.88. The matching figures for `CCCCc1noc([C@H](C)S(=O)(=O)Cc2ccn(-c3ccccc3)n2)n1`: 0% and -0.01. The matching figures for `Cc1ccc(CN2CCN(C(=O)c3cnc[nH]3)[C@@H](C)C2=O)cc1`: -9% and 1.84.

As to `Cn1ccc([C@@H]2CCCCN2C(=O)c2csc(-c3cccs3)n2)n1`, the “% Inhibition” value is 0% and the Z score is -0.09. The matching figures for `CCCN(CC(C)(C)O)C(=O)c1ccc(CC(C)C)s1`: 2% and -0.35. Regarding `COCc1nsc(N2CCC[C@H](CC(F)(F)F)C2)n1`, the “% Inhibition” value is -2% and the Z score is given as 0.31.

In the case of `OC[C@@]1(CCc2ccccc2)CCCNC1`, the “% Inhibition” value is -7% and the Z score was found to be 1.18. The matching figures for `COC(=O)c1cc2n(n1)C[C@@](C)(C(=O)NC1CCCCC1)N(c1cc(C)cc(C)c1)C2=O`: 5% and -0.6. On the same counts, the results for `O=C(Nc1cccc(Cn2ccnc2)c1)c1cccnc1O` are -4% and 0.38.

Consider `C[C@H]1Cc2ccccc2N1Cc1nc2ccccc2o1`, for which the “% Inhibition” value was -1% and the Z score was 0.15. Turning to `Cc1cnc(C)c(N2CCC(NC(=O)CC3CCCCC3)CC2)n1`, the “% Inhibition” value was -17% and the Z score worked out at 2.14. On the same counts, the results for `Cc1ccccc1NC(=O)OCC(F)(F)F` are -4% and 0.68. The matching figures for `Cn1ccnc1CN1CCC2CCC(C1)N2C(=O)OC(C)(C)C` (centres undefined): -11% and 1.66. Turning to `Cc1nnc(CN(C)C(=O)NCc2ccc(OC(F)F)cn2)s1`, the “% Inhibition” value is 0% and the Z score was determined as 0. The matching figures for `COCc1nc(-c2ccsc2)n(CC(F)(F)F)n1`: 2% and -0.4.

In the case of `O=c1c2ccccc2nnn1C[C@H]1CC[C@H](C(=O)NCc2ccccn2)CC1`, the “% Inhibition” value is recorded as -2% and the Z score was determined as 0.45. On the same counts, the results for `C=CCC(C(=O)NC(C)c1nn(C)cc1OC)c1ccccc1` (centres undefined) are -13% and 1.44. On the same counts, the results for `CC[C@H](C)NCCOc1ccccc1C` are 8% and -1.11. For `COc1ncccc1NCc1ccncc1`, the “% Inhibition” value was -8% and the Z score is listed as 1.52. On the same counts, the results for `Cc1c(Cl)cccc1NC(=O)COc1cccc(-c2nnco2)c1` are -8% and 1.11. The matching figures for `CCCCN(CC(N)=O)C(=O)Cc1ccc(Cl)cc1Cl`: -6% and 0.76. Take `COc1cc2c(cc1OC)C(=O)C(C)(C)N(C(=O)CC(c1ccccc1)c1ccccc1)C2`: the “% Inhibition” value was determined as 5% and the Z score is on record as -0.98. On the same counts, the results for `CCCc1cc([C@@H]2CCCN2Cc2cc(OC)c(OC)c(OC)c2)no1` are -10% and 1.32. On the same counts, the results for `CCOC(C)(C)C(=O)N[C@@H](COC)c1ccccn1` are -6% and 1.22. On the same counts, the results for `CCc1nsc(N[C@H]2CCC(=O)N(C)C2)n1` are -12% and 2.1. As to `CC(=O)Nc1ccc2c(c1)cc(C(=O)N1CCCC1)n2Cc1ccc(C(C)(C)C)cc1`, the “% Inhibition” value is -12% and the Z score is on record as 2.35. The matching figures for `CC(=O)N1CCN(Cc2ccccc2NC(=O)c2cscn2)CC1`: -17% and 1.74. As to `Cc1nnsc1CN(C)Cc1ccc([C@H](C)N(C)C)cc1`, the “% Inhibition” value is -4% and the Z score stood at 0.66. Regarding `O=C(c1cnccn1)N1CCCCC[C@H]1C1CCCCC1`, the “% Inhibition” value is listed as -10% and the Z score was 1.2.

`Cc1ncc(CN(CCO)c2cccc(C(C)C)c2)o1`: the “% Inhibition” value is on record as -9% and the Z score worked out at 0.89.

Consider `NC(=O)CN1CCCN(c2ncnc3scc(-c4ccccc4)c23)CC1`, for which the “% Inhibition” value was -11% and the Z score came to 2.04. For `COc1ccc(Cl)cc1S(=O)(=O)c1cnc(N2CCC(NC(=O)OC(C)(C)C)CC2)nc1N`, the “% Inhibition” value came to 4% and the Z score is -0.6. The matching figures for `CN1CCN(C(=O)C[C@@H]2CCN3C[C@@H]2/C=C\COc2ccccc2CNCC3=O)CC1`: -4% and 0.5. The matching figures for `Nc1nc(N[C@H]2C[C@@H](c3cc(=O)[nH]cn3)C2)c2nc[nH]c2n1`: 12% and -1.38. The matching figures for `O=C(Nc1ccc(OC[C@H]2CCCCO2)cc1)C1(N2CCOCC2)CCCCC1`: 1% and -0.26.

For `C[C@]1(c2cccnc2)NC(=O)N(CC(F)F)C1=O`, the “% Inhibition” value was -7% and the Z score amounted to 1.2. On the same counts, the results for `CNS(=O)(=O)N1CCC(F)(Cc2ccccn2)CC1` are -8% and 1.46. The matching figures for `COCCc1nncn1C1CCN(C(=O)c2ccc(C(F)(F)F)cc2)CC1`: -16% and 2.8. For the molecule `Cn1c(-c2ccccn2)nn(CC(=O)N2CCC(Cc3ccccc3)CC2)c1=O`, the “% Inhibition” value amounted to 7% and the Z score is on record as -0.78.

For the molecule `O=C(OCc1ccccc1)C1C2CCC(C2)C1NCc1nccs1` (centres undefined), the “% Inhibition” value was 8% and the Z score is reported as -1.45. On the same counts, the results for `O=C(CCCC1CCCCC1)N1CC[C@H](c2nn[nH]n2)C1` are -44% and 5.17. On the same counts, the results for `CCCS(=O)(=O)N1CCC2(CC1)CC(=O)N(Cc1c(C)noc1C)C2` are 3% and -0.47. On the same counts, the results for `NC(=O)C1CCCC1Nc1ccc(Br)cn1` (centres undefined) are -17% and 1.99.

In the case of `CCOc1ccccc1-c1cc(C(=O)N2CCNC(=O)C2)n[nH]1`, the “% Inhibition” value is listed as -11% and the Z score was found to be 1.49. On the same counts, the results for `CCn1ncc(NC(=O)Cn2ccc(-c3ccncc3)n2)n1` are 2% and -0.22. As for `C[C@@H](NC(=O)CCc1ccc(Br)cc1)C(=O)O`, the “% Inhibition” value was found to be 0% and the Z score is 0.03.

For `CCN(CC)S(=O)(=O)NCc1c(C)n[nH]c1C`, the “% Inhibition” value amounted to 13% and the Z score was -1.7. On the same counts, the results for `Cn1cc(C(NC2CCCC(C3CC3)C2)C(F)(F)F)cn1` (centres undefined) are -14% and 2.17. Regarding `CC1CC1c1ccc(CN(C)C(=O)c2ccc(N3CCCC3=O)cc2)o1` (centres undefined), the “% Inhibition” value is recorded as -7% and the Z score amounted to 0.92. The matching figures for `O=C(NC1CCCCCC1)c1csc2c1CCNC2`: -14% and 1.25. `c1cnnc(-c2noc([C@@H]3[C@H]4[C@@H]5CC[C@@H](C5)[C@@H]34)n2)c1`: the “% Inhibition” value is recorded as -5% and the Z score is 0.75. The matching figures for `CCC(=O)N1CCc2ccc(OCc3ccc(C(=O)N4CCOCC4)o3)cc2[C@@H]1c1ccc(C)cc1`: -6% and 0.75. For `O=C(NCCc1cn[nH]c1)N1CCC[C@H]1c1ccc(F)cc1F`, the “% Inhibition” value was -4% and the Z score was 0.66. The matching figures for `CC1CN(c2ccccc2NCc2cnc3cnccn23)CC(C)O1` (centres undefined): -12% and 1.6. The matching figures for `c1cncc(-c2cccc(CNc3ncccc3N3CCOCC3)c2)c1`: 3% and -0.34.

With `Cn1cc(S(=O)(=O)NCc2cccnc2-c2cccnc2)cn1`, the “% Inhibition” value was -2% and the Z score is listed as 0.33. On to `CCc1[nH]c(=O)c(C#N)c2c1CO[C@H](C(C)C)C2`, for which the “% Inhibition” value (2 µM) was 2% and 0%. Take `Fc1ccc2c(c1)nc(-c1ccc3c(c1)OCO3)n2C1CCNCC1`: the “% Inhibition” value amounted to 4% and the Z score was -0.6. `CNC(=O)OC[C@H]1CCCCN1C(=O)c1cc(C)nc2c1cnn2C`: the “% Inhibition” value is given as -19% and the Z score is reported as 2.28. On the same counts, the results for `Cc1ccc(Cn2c(C(=O)N3CCN(C(=O)c4ccccc4F)[C@@H](C)C3)cc3ccoc32)cc1` are -4% and 0.62. The matching figures for `Cc1cc2c(N3CCC[C@H]3C(C)(C)O)nccn2n1`: -14% and 1.76. On the same counts, the results for `CCN(C(=O)CCN(C)[C@H]1CS(=O)(=O)C[C@@H]1O)c1ccccc1C` are -17% and 2.3. `O=C(NCC1CCCC1NC(=O)c1ccsc1)c1ccsc1` (centres undefined): the “% Inhibition” value turned out to be 8% and the Z score is listed as -1.37. The matching figures for `COc1ccc(CCNc2nc(-c3ccc4c(c3)OCO4)cs2)cc1OC`: -5% and 0.65. As to `CC(C)(C)c1cc(CN2CCOCC2)c(O)c(CN2CCOCC2)c1`, the “% Inhibition” value is -4% and the Z score came to 0.54. For `O=C(COc1c(F)c(F)c(F)c(F)c1F)N1CCO[C@@H](COCc2ccc(F)cc2Cl)C1`, the “% Inhibition” value was -10% and the Z score is 1.46. The matching figures for `O=C(CCNC(=O)c1nc2n(n1)CCCN2)NCc1cccnc1`: 18% and -2.3. For the molecule `Cc1ccc(-c2cc(-c3ccccc3)c3c(N)c(C(=O)Nc4c(C)ccc5ccccc45)sc3n2)cc1`, the “% Inhibition” value is reported as -7% and the Z score was 0.82. On the same counts, the results for `CCn1cc(CN2C[C@@H]3CC[C@H]2CN(C(=O)C2CCC2)C3)cn1` are 11% and -1.51. On the same counts, the results for `COc1cc(N2CCC(N3C[C@@H](C)O[C@@H](C)C3)CC2)ncn1` are 3% and -0.56. Consider `COc1cc2c(C(=O)N3CCCCC3)c(C)n(-c3ccccc3)c2cc1Br`, for which the “% Inhibition” value is 2% and the Z score is listed as -0.21. The matching figures for `O=C(Nc1ccc(C(F)F)nc1)c1coc2c1C(=O)NCCC2`: 4% and -0.68.

`O=C(N1CCc2c(cnn2-c2ccccc2)C1)C1(C(F)(F)F)CCOCC1`: the “% Inhibition” value was determined as 2% and the Z score is -0.31. For `CN1C(=O)[C@@H]2CCC[C@H]1CN(c1ncc(C#N)c(N)n1)C2`, the “% Inhibition” value is reported as -13% and the Z score is on record as 1.67. On the same counts, the results for `NC(=O)[C@@H]1CN(Cc2cccc3[nH]ccc23)CCO1` are -12% and 2.27.

For `CCC(=O)Nc1c(C)noc1/C=C\c1ccc(S(=O)(=O)N2CCN(C3CCCCC3)CC2)cc1`, the “% Inhibition” value is -24% and the Z score came out at 3.35. On the same counts, the results for `Cc1cc(-c2noc(Cc3ccccc3)n2)c2ccccc2n1` are 31% and -3.56.

`COc1ccc(C(=O)N2CCc3ccccc3C2)cc1S(=O)(=O)N1CC(C)CC(C)C1` (centres undefined): the “% Inhibition” value is on record as -11% and the Z score was found to be 1.4. The matching figures for `CCCc1c(C(=O)N2CCN(C)CC2)c(=O)cc(C)n1Cc1ccc2c(c1)OCO2`: 7% and -0.89. On to `O=C1CNC(C(=O)N2CCC[C@H]2c2ccncc2)=NN1c1ccccc1`, for which the “% Inhibition” value is 3% and the Z score is reported as -0.62. On the same counts, the results for `COc1ccc(N2CCN(Cc3cccn3-c3nnc(N4CCN(c5ccccc5)CC4)s3)CC2)cc1` are -10% and 1.71.
